From the supplement of paper PMC9446081
Screen size: about 39,000 compounds; about 220 (0.56%) showed activity. Some of the results follow.
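Further: static incubation at 37 °C against the wild-type strain, values averaged over two biological replicates.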

These molecules were tested on Escherichia coli K-12 BW25113 (assay: relative growth (OD600 normalised to plate interquartile mean) (fraction); higher = less growth inhibition, active = 0.2 or less). Conditions: 50 µM; LB; incubation time: overnight (16-24 h).
`C[C@@H]1CN([C@H](C)CO)C(=O)Cc2cc(NC(=O)Nc3ccc(F)cc3)ccc2O[C@H]1CN(C)Cc1ccc(Cl)c(Cl)c1` was tested, and the relative growth was inactive: 1.02.
With `CCS(=O)(=O)N1Cc2cc(C(=O)NCCOC)nc(-c3cccc(-c4ccncc4)c3)c2[C@H]1CCO` the relative growth was inactive: 1.01.
For `C[C@H]1CN([C@@H](C)CO)C(=O)c2cc(NC(=O)CCC(F)(F)F)ccc2O[C@H]1CN(C)C(=O)Nc1ccc(C(F)(F)F)cc1`, the relative growth was inactive: 0.976.
`C[C@H](CO)N1C[C@H](C)[C@@H](CN(C)S(=O)(=O)c2ccc(Cl)cc2)Oc2ccc(NC(=O)CCN3CCOCC3)cc2C1=O` was tested, and the relative growth was inactive: 0.997.
For `C[C@H](CO)N1C[C@H](C)[C@@H](CN(C)S(=O)(=O)c2ccccc2)Oc2c(NS(=O)(=O)c3ccc(F)cc3)cccc2C1=O`, the relative growth was inactive: 1.
In the case of `CC(C)NC(=O)Nc1ccc2c(c1)C(=O)N([C@H](C)CO)C[C@@H](C)[C@H](CN(C)Cc1ccc(C(F)(F)F)cc1)OCCCC[C@@H](C)O2`, the relative growth is reported as inactive: 1.02.
For `COc1ccc(S(=O)(=O)N(C)C[C@H]2Oc3ccc(NC(=O)NC(C)C)cc3C(=O)N([C@H](C)CO)C[C@@H]2C)cc1`, the relative growth was inactive: 1.01.
For `C[C@H]1CN([C@@H](C)CO)C(=O)c2cccc(N(C)C)c2O[C@H]1CN(C)S(C)(=O)=O`, the relative growth was inactive: 0.995.
In the case of `C[C@@H]1CN([C@H](C)CO)C(=O)Cc2cc(NC(=O)Nc3ccccc3)ccc2O[C@H]1CN(C)S(=O)(=O)c1cn(C)cn1`, the relative growth is reported as inactive: 0.984.
With `C[C@H]1CN([C@@H](C)CO)S(=O)(=O)c2ccc(C#CC3CCCCC3)cc2O[C@@H]1CN(C)C(=O)Cc1ccncc1` the relative growth was inactive: 1.
In the case of `C[C@@H]1CC[C@]2(C(=O)O[C@@H]3O[C@H](CO)[C@@H](O)[C@H](O)[C@H]3O)CC[C@]3(C)C(=CC[C@H]4[C@@]5(C)C[C@@H](O)[C@H](O)[C@@](C)(CO)[C@@H]5CC[C@]43C)[C@@H]2[C@]1(C)O`, the relative growth is reported as inactive: 0.917.
With `CC(C)(O/N=C(\C(=O)N[C@@H]1C(=O)N2C(C(=O)O)=C(C[n+]3ccccc3)CS[C@H]12)c1csc(N)n1)C(=O)O` the relative growth was active: 0.0433.
With `NC(=O)NCC#Cc1ccc2c(c1)[C@]1(C(=O)N2)[C@H](c2ccc(OCCO)cc2)N2[C@H](c3ccccc3)[C@H](c3ccccc3)OC(=O)[C@H]2[C@@H]1C(=O)N1CCCCCCC1` the relative growth was inactive: 1.04.
With `CO[C@@H]1CN(C)C(=O)c2ccc(NS(=O)(=O)CC(F)(F)F)cc2OC[C@@H](C)N(Cc2ccccn2)C[C@H]1C` the relative growth was inactive: 0.979.
`COc1ccc([Si](C)(C)[C@H]2[C@H](CCOC(=O)NCCCCCC(=O)NO)O[C@]3(C(=O)N(Cc4ccccc4)c4ccc(NC(=O)[C@@H](C)OC(=O)NCCCCCC(=O)NO)cc43)[C@@H]2C)cc1` was tested, and the relative growth was inactive: 0.953.
With `C[C@@H]1CN([C@H](C)CO)C(=O)c2cccc(NC(=O)c3ccc(-c4nccs4)cc3)c2O[C@H]1CN(C)Cc1ccc(Oc2ccccc2)cc1` the relative growth was inactive: 1.05.
For `COc1ccc(S(=O)(=O)Nc2ccc3c(c2)C(=O)N([C@@H](C)CO)C[C@H](C)[C@@H](CN(C)CC2CC2)O3)cc1`, the relative growth was inactive: 0.995.
With `CN(C)CCCN1C(=O)[C@@H]2[C@@H](C1=O)[C@@H]1C=C[C@@H]2C1` the relative growth was inactive: 1.01.
For `C[C@@H]1O[C@H](O)[C@@H](F)[C@H](O)[C@@H]1O`, the relative growth was inactive: 1.02.
For `C[C@@H]1CN([C@H](C)CO)C(=O)Cc2cc(NS(=O)(=O)c3ccccc3)ccc2O[C@H]1CN(C)Cc1ccc(Oc2ccccc2)cc1`, the relative growth was inactive: 0.972.
For `NCc1ccc(-c2ccccc2O)cc1`, the relative growth was inactive: 0.978.
`O=C1NC(=S)NC12CCCCC2` was tested, and the relative growth was inactive: 0.965.
In the case of `COc1ccc(NC(=O)Nc2ccc3c(c2)C(=O)N([C@@H](C)CO)C[C@@H](C)[C@H](CN(C)S(C)(=O)=O)O3)cc1`, the relative growth is reported as inactive: 0.983.
For `Cc1noc(C)c1S(=O)(=O)Nc1ccc2c(c1)C(=O)N([C@H](C)CO)C[C@H](C)[C@H](CN(C)C(=O)Nc1ccccc1)O2`, the relative growth was inactive: 0.886.
`C[C@H](CO)N1C[C@H](C)[C@H](CN(C)C(=O)Nc2ccc(C(F)(F)F)cc2)Oc2c(NC(=O)Nc3ccc(C(F)(F)F)cc3)cccc2C1=O` was tested, and the relative growth was inactive: 1.01.
In the case of `C[C@@H]1CN([C@@H](C)CO)C(=O)c2cc(N(C)C)ccc2O[C@@H](C)CCCCO[C@H]1CN(C)S(=O)(=O)c1cn(C)cn1`, the relative growth is reported as inactive: 0.885.
For `CCOC(=O)C1CCN(S(=O)(=O)c2c(C)n(C)c(=O)n(C)c2=O)CC1`, the relative growth was inactive: 0.984.
`CN1CCN2CCN(C(=O)c3cccc(N)c3)C[C@@H]2C1=O` was tested, and the relative growth was inactive: 1.03.
With `CC(=O)N1[C@@H]2c3ccc(-c4ccccc4)c(=O)n3C[C@H]1[C@H](CO)[C@H]2C(=O)N1CCN(C)CC1` the relative growth was inactive: 0.982.
For `Cc1noc(C)c1S(=O)(=O)Nc1ccc2c(c1)CC(=O)N([C@@H](C)CO)C[C@@H](C)[C@H](CN(C)S(C)(=O)=O)O2`, the relative growth was inactive: 0.975.
With `C[C@H](CO)N1C[C@H](C)[C@H](CN(C)S(=O)(=O)c2cn(C)cn2)Oc2cc(C3=CCCC3)ccc2S1(=O)=O` the relative growth was inactive: 0.991.
`COc1ccc(NC(=O)Nc2ccc3c(c2)CC(=O)N([C@@H](C)CO)C[C@H](C)[C@H](CN(C)Cc2ccc(C(F)(F)F)cc2)O3)cc1` was tested, and the relative growth was inactive: 1.03.
With `Nc1nc(=O)c2nc(Br)n([C@H]3O[C@H]4CO[PH](O)(O)O[C@@H]4[C@@H]3O)c2[nH]1` the relative growth was inactive: 1.
With `C[C@@H]1CN([C@@H](C)CO)C(=O)Cc2cc(NC(=O)NC3CCCCC3)ccc2O[C@@H]1CN(C)C(=O)Nc1ccc(C(F)(F)F)cc1` the relative growth was inactive: 1.04.
For `C[C@@H]1CCCCO[C@@H](CN(C)CC2CCCCC2)[C@H](C)CN([C@H](C)CO)C(=O)c2cc(NS(=O)(=O)c3ccccc3)ccc2O1`, the relative growth was inactive: 0.979.
In the case of `C[C@H](CO)N1C[C@H](C)[C@H](CN(C)S(=O)(=O)c2cn(C)cn2)Oc2cc(C3=CCCCC3)ccc2S1(=O)=O`, the relative growth is reported as inactive: 1.02.
In the case of `NC(=O)NCC#Cc1ccc2c(c1)[C@]1(C(=O)N2)[C@H](c2ccc(O)cc2)N2[C@H](c3ccccc3)[C@H](c3ccccc3)OC(=O)[C@H]2[C@@H]1C(N)=O`, the relative growth is reported as inactive: 0.955.
In the case of `COC(=O)C(c1ccccc1Cl)N1CCc2sccc2C1.O=S(=O)(O)O` (centres undefined), the relative growth is reported as inactive: 1.07.
`C[C@@H]1CN([C@H](C)CO)C(=O)c2cc(NC(=O)Cc3ccccc3)ccc2O[C@H]1CN(C)S(=O)(=O)c1cn(C)cn1` was tested, and the relative growth was inactive: 0.948.
For `O=C(C=Cc1ccccc1)c1ccc(O)cc1O`, the relative growth was inactive: 0.917.
In the case of `C[C@H]1CN([C@@H](C)CO)C(=O)c2c(c3ccccc3n2C)-c2ccccc2CO[C@@H]1CN(C)C(=O)NC1CCCCC1`, the relative growth is reported as inactive: 1.
In the case of `C[C@@H]1CN([C@@H](C)CO)C(=O)c2cc(NC(=O)Nc3ccccc3)ccc2O[C@@H]1CN(C)S(=O)(=O)c1cn(C)cn1`, the relative growth is reported as inactive: 1.02.
`Cc1ccc(S(=O)(=O)Nc2ccc3c(c2)C(=O)N([C@@H](C)CO)C[C@@H](C)[C@@H](CN(C)C(=O)NC2CCCCC2)OCCCC[C@@H](C)O3)cc1` was tested, and the relative growth was inactive: 1.04.
In the case of `O=C(O)c1ccc2cc(-c3ccc(O)c(C45CC6CC(CC(C6)C4)C5)c3)ccc2c1`, the relative growth is reported as inactive: 0.767.
With `CN1C(=O)c2cc(NC(=O)c3ccc(F)c(F)c3)ccc2OC[C@@H]2O[C@H](CC(=O)N3CCOCC3)CC[C@@H]21` the relative growth was inactive: 1.
`COc1ccc(S(=O)(=O)Nc2ccc3c(c2)CC(=O)N([C@H](C)CO)C[C@@H](C)[C@H](CN(C)S(C)(=O)=O)O3)cc1` was tested, and the relative growth was inactive: 0.978.
For `O=C(O)c1cc(O[C@@H]2O[C@H](CO)[C@@H](O)[C@H](O)[C@H]2O)c2ccccc2c1O`, the relative growth was inactive: 0.982.
With `COc1ccc(NC(=O)N(C)C[C@@H]2OCCCC[C@H](C)Oc3ccc(NC(=O)NC(C)C)cc3C(=O)N([C@H](C)CO)C[C@@H]2C)cc1` the relative growth was inactive: 1.04.
For `CNC(=O)N1C[C@H]2C[C@@H]3[C@@](C1)(CN(C)S3(=O)=O)O2`, the relative growth was inactive: 0.975.
With `Cc1ccc(S(=O)(=O)N(C)C[C@H]2Oc3ccc(NC(=O)NC(C)C)cc3CC(=O)N([C@H](C)CO)C[C@H]2C)cc1` the relative growth was inactive: 1.04.
In the case of `COc1ccc(S(=O)(=O)N(C)C[C@@H]2Oc3c(NS(=O)(=O)c4ccc(F)cc4)cccc3C(=O)N([C@H](C)CO)C[C@@H]2C)cc1`, the relative growth is reported as inactive: 0.999.
With `COc1ccc(S(=O)(=O)N2C[C@H](O)COC[C@@H]3O[C@H](CC(=O)NCc4ccc(Cl)c(Cl)c4)CC[C@H]32)cc1` the relative growth was inactive: 1.
`COc1ccc(S(=O)(=O)N(C)C[C@H]2OCCCC[C@@H](C)Oc3ccc(NC(=O)CCCCCC(=O)Nc4ccccc4N)cc3C(=O)N([C@H](C)CO)C[C@H]2C)cc1` was tested, and the relative growth was inactive: 0.998.
In the case of `COc1ccccc1-c1ccc2c(c1)O[C@@H](CN(C)C(=O)c1cccnc1)[C@H](C)CN([C@@H](C)CO)S2(=O)=O`, the relative growth is reported as inactive: 1.01.
With `CN(C)CC(=O)N[C@H]1CC[C@@H](CCNC(=O)C2CC2)O[C@@H]1CO` the relative growth was inactive: 1.01.
In the case of `COCc1nnc2n1CCN(C(=O)c1ccn[nH]1)C2`, the relative growth is reported as inactive: 1.01.
With `COc1ccc(S(=O)(=O)N(C)C[C@@H]2Oc3c(NS(=O)(=O)c4ccc(C)cc4)cccc3C(=O)N([C@@H](C)CO)C[C@H]2C)cc1` the relative growth was inactive: 1.04.
For `COc1ccc(S(=O)(=O)Nc2ccc3c(c2)CC(=O)N([C@@H](C)CO)C[C@H](C)[C@@H](CN(C)S(=O)(=O)c2cn(C)cn2)O3)cc1`, the relative growth was inactive: 0.998.
With `C[C@H]1CCCCO[C@H](CN(C)C(=O)Nc2ccc3c(c2)OCO3)[C@@H](C)CN([C@@H](C)CO)C(=O)c2cc(NC(=O)Nc3ccc(C(F)(F)F)cc3)ccc2O1` the relative growth was inactive: 0.976.
